Results: the supplement of paper PMC11417369
Some of the results follow.

Tested on: PfSIP2 AP2 domain 1 (GST-tagged)
Test: gcPBM binding intensity (ln(normalized median fluorescence intensity)); higher = stronger DNA binding
How it was run: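 Binding of GST-tagged P. falciparum DNA-binding domains, expressed in E. coli and used at about 25 μg on average, was carried out for 1 h in 1× PBS containing 1% milk, 0.2 mg/ml BSA, 0.5% salmon testes DNA and 0.03% Triton X-100. The target was an Agilent 4 × 180k array of primer-extended double-stranded 36-bp intergenic genomic probes plus negative controls, read with Alexa488 anti-GST antibody at 488 nm. Binding intensity is the highest Masliner-normalised natural-log median intensity across replicate spots of either probe orientation.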

Row | Sequence | gcPBM binding intensity (ln)
1 | AAATATAAAAGTATATGTACATATATATATATATAT [XGTACX_site7446] | 9.54
2 | AATAAATAGATATATACACACATATATCTATAATAT [CACACA_site6557] | 6.92
3 | CATATTCCCCCCCACACACACACACCCATACATACC [CACACA_site2303] | 10.2
4 | CGTGTGTCCCCCTTAATCATCCAATCGTTCATTTTG [CACACA_negctrl_site1008] | 7.57
5 | TATATAATGGTAAAAACACACAAATATGAAGATGTT [CACACA_site722] | 6.77
6 | AGAGGATCATAGTTATGTACACATATTTAACATAAA [XGTACX_site7232] | 6.89
7 | TCTTCATTTTTATGTGCATGTAAAATTTTTTTTTTT [TGCATGCA_site963] | 8.59
8 | GACAATAAAAAGAAAAGTACATATATAAATTAACCA [XGTACX_site7858] | 6.91
9 | TTTTTTTCTAATTATGCACACATATCAAAATATTCA [CACACA_site8886] | 10.3
10 | ATATTTATTATATAATGTACAAAAAAAAAAAAAAAA [XGTACX_site629] | 6.92
11 | TTACTTAAATATAAGTGTCCTCAAAAAAAAAAAAAA [XGTACX_site460] | 6.94
12 | AATATAAGTTTATTAGTGCACAGATAAATATATATT [GTGCAC_site9784] | 9.81
13 | ATTTTTTATATTAATTGTACATTGTATATATATATA [XGTACX_site8702] | 9.05
14 | ATGTATGTTTTTTTTTTATTGTTCAAAAAGTTGAAG [CACACA_negctrl_site1276] | 7.15
15 | TTTTTATAAAAATTATTAAAAAAATTATTTATAGCT [CACACA_negctrl_site265] | 6.63
16 | AAATATATTATTATCTTATCAATTAAAAGAATAAAC [CACACA_negctrl_site779] | 7.07
17 | TAGCGCATAAAAAAAAAAAAATATATACTAATAAAT [GTGCAC_negctrl_site276] | 6.66
18 | TTTTTTTTCAATCTCTATATATTAAGGTTTATATTT [XGTACX_negctrl_site397] | 6.64
19 | ATTCAAATATTAAAAAGTACAAAAAAAAAACAAAAA [XGTACX_site1174] | 6.98

Row | Sequence | gcPBM binding intensity (ln)
20 | ATATAATTATTGATATGTACATATTTGTTCTAGTTT [XGTACX_site3012] | 7.02
21 | ACAACACTATATTACACATGCATTAAGAGAGTGAAC [TGCATGCA_site124] | 7.35
22 | ACATTAAAATATGATTGTACATTTTATTATATTATA [XGTACX_site912] | 6.94
23 | CTATCATATTTATGCACACAAAAATAATTAATTCGT [CACACA_site2614] | 7.45
24 | ACCTGTTCATATGATCGTACACGTCAGTTTATATGA [XGTACX_site3869] | 7.13
25 | TATTTTGAGAATAAATGTACGAATTTTATATTTAAA [XGTACX_site1336] | 6.61
26 | TAAAATAAAAATTAAAGTACATATGTATATATATAT [XGTACX_site3984] | 9.06
27 | GAGTATTCAAGTATTAGTACATATTATATAATAAAT [XGTACX_site7630] | 6.98
28 | AATCCTTACGGACACACACACACGAATAAATAAAAA [CACACA_site4422] | 7.36
29 | TACAAAATGGGGAACACACACATATATAAATAAATA [CACACA_site7751] | 7.04
30 | ATAATTATTTTAGAAACACACAAATTAGAAAAAACA [CACACA_site3636] | 7.21
31 | AATAGAACTATTACACGTACAGAACATGAATTAGTT [XGTACX_site7518] | 6.9
32 | TTTTTTAATTAGTACAAACACACATATACAGACAAA [CACACA_site2564] | 7.58
33 | TGTTATATATGTAATTGTACACTTATACAAAATTAT [XGTACX_site6350] | 7.13
34 | ATTTAGAATGCGTATACACACATATATAGATTTGCT [CACACA_site626] | 6.9
35 | AAAAAAATTAGACACACACACACATATAAATATGTA [CACACA_site6618] | 6.92
36 | CAAAATATAACATCATCACACACATATACTTTATAT [CACACA_site8292] | 6.94
37 | ATTTAAAAATAAAGAACACACATATGTAAAATATAT [CACACA_site3754] | 7.26
38 | TTATTAATATATAAATGTACATATACAATACATAAA [XGTACX_site5571] | 7.06

Row | Sequence | gcPBM binding intensity (ln)
39 | TATTTAAGAGTATGAACACACATCATACACATATAA [CACACA_site3617] | 6.9
40 | TATGTTTGTGTATATATTTATTTTTATGTAATTATA [GTGCAC_negctrl_site219] | 7.22
41 | ATCTATATAATATATACACACAAATATACAAAAAAA [CACACA_site1013] | 7.11
42 | ATAAATTAAAGACACACACACATCTGGATACCCCTA [CACACA_site7546] | 6.98
43 | TACATGCATTTCTCATGTACATAATTTTCCCATATT [XGTACX_site5158] | 6.9
44 | TTATATTATATATATAGTACACATGTAATATTTCAA [XGTACX_site1791] | 7.22
45 | TTTTATACATAAATGTGTACGTATATATAATGAATT [XGTACX_site2762] | 7.2
46 | TAAATATGCTCACAGATGCACTAACACATTTTTATA [GTGCAC_site9997] | 8.14
47 | TATTGTAGAGGCAAAAGTACACATTTAATAATTTCC [XGTACX_site1151] | 6.84
48 | TCCTTATATGGGCACACACACACAATAAAATGAAAA [CACACA_site1030] | 7.59
49 | AAAATTAGGTATATATGTACATATATAAATATATAT [XGTACX_site3555] | 7.26
50 | GTTTATATTAAACAAACACACACATATATATATATA [CACACA_site8749] | 9.29
51 | TATGCTACAAGGAGAACACACAATTGCCACTTTTGG [CACACA_site2166] | 6.72
52 | AACCATTATTTCTCTACACACATTTATGTCATTTAC [CACACA_site1499] | 7.13
53 | ATGTATATGATTAAATGTACGTAAACAAATTTGTAA [XGTACX_site8174] | 7.13
54 | ACCACATAAAACAAATGTACTTGAAATATATGCGTA [XGTACX_site5155] | 6.96
55 | CAAAGGGAAATTAACACACACATATTTATATTTATA [CACACA_site7202] | 6.8
56 | TATTAATAAATTTATAAAACAGGTATATATATATAT [CACACA_negctrl_site615] | 9.33
